Test results taken from the supplement of paper PMC6089552.
The campaign covered roughly 3,200 compounds. About 300 (9.4%) showed activity. This is a selection; strong and weak results do not stand in their true shares.

Tested on: A673/TR/shEF
Assay: cell viability (LOESS-normalised, relative to median of negative controls) (log2 ratio); higher = more viable cells (less compound effect), active = hit call of the paper (over 3 MAD below the median)
Conditions: treatment time: 72 h
Summary of the method: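 Doxycycline, present or absent from 24 h before compounds, was used to induce EWS-FLI1 shRNA knockdown in A673/TR/shEF Ewing sarcoma cells at 1,500 per well in 384-well plates. Cells then received library compounds at two or more concentrations, or DMSO controls, for three days. Viability was measured by CellTiter-Glo luminescence on an Envision reader, and per-plate LOESS correction, division by the negative-control median and log2 transformation followed.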

[1] = 0.25 µM, library screen: screen1, EWS-FLI1 expression: high (no doxycycline)
[2] = 0.25 µM, library screen: screen1, EWS-FLI1 expression: low (doxycycline-induced shRNA knockdown)
[3] = 2.5 µM, library screen: screen1, EWS-FLI1 expression: high (no doxycycline)
[4] = 2.5 µM, library screen: screen1, EWS-FLI1 expression: low (doxycycline-induced shRNA knockdown)
[5] = 0.25 µM, library screen: screen2, EWS-FLI1 expression: high (no doxycycline)
[6] = 0.25 µM, library screen: screen2, EWS-FLI1 expression: low (doxycycline-induced shRNA knockdown)
[7] = 2.5 µM, library screen: screen2, EWS-FLI1 expression: high (no doxycycline)
[8] = 2.5 µM, library screen: screen2, EWS-FLI1 expression: low (doxycycline-induced shRNA knockdown)

Measured: cell viability (log2)

CN1CC(=O)N=C1N
inactive: [1] 0.0593 | [2] 0.0447 | [3] 0.041 | [4] 0.0685

O=C(O)CCCCCCCn1ccnc1
inactive: [1] 0.124 | [2] 0.0433 | [3] 0.168 | [4] 0.0749

NC(N)=O
inactive: [1] -0.0272 | [2] 0.118 | [3] 0.131 | [4] 0.195

C=C1[C@@H]([C@@]2(C)C=CC(=O)C(C)(C)[C@@H]2CC(=O)OC)CC[C@@]2(C)C(c3ccoc3)OC(=O)[C@H]3O[C@]132 (stereo not given in full)
inactive: [1] 0.109 | [2] 0.0181 | [3] 0.0641 | [4] 0.0727

CC(C)NC[C@H](O)c1ccc(O)c(O)c1
inactive: [5] 0.15 | [6] 0.0965 | [7] 0.0541 | [8] 0.0273

C[C@@H]1CC[C@@]2(OC1)O[C@H]1C[C@H]3[C@@H]4CC[C@@H]5C[C@@H](O)CC[C@]5(C)[C@H]4CC[C@]3(C)[C@H]1[C@@H]2C
inactive: [1] 0.0641 | [2] 0.0518 | [3] 0.077 | [4] 0.0287

NCCS(=O)O
inactive: [5] 0.169 | [6] -0.00866 | [7] 0.0939 | [8] 0.0741

N[C@@H](C(=O)N[C@@H]1C(=O)N2C(C(=O)O)=C(Cl)CS[C@H]12)c1ccccc1
inactive: [1] 0.116 | [2] -0.0458 | [5] 0.0336 | [6] 0.0653 | [3] 0.203 | [4] 0.114 | [7] 0.0911 | [8] 0.104

N#C/C(=C\c1ccc(O)c(O)c1)C(=O)NCCCNC(=O)/C(C#N)=C/c1ccc(O)c(O)c1
inactive: [5] 0.153 | [6] 0.132 | [7] 0.199 | [8] 0.0575

O=C(OCc1ccccc1)c1ccccc1
inactive: [1] 0.0522 | [2] 0.0983 | [3] 0.0811 | [4] 0.112

OC(CCN1CCCCC1)(c1ccccc1)C1CCCCC1 (stereo not given)
inactive: [1] 0.0577 | [2] 0.0688 | [5] 0.222 | [6] 0.088 | [3] 0.11 | [4] 0.0848 | [7] 0.239 | [8] 0.00127

COc1ccc(OC)c(CN2CCN(Cc3c[nH]c4ccccc34)CC2)c1
inactive: [1] 0.113 | [2] 0.0685 | [3] 0.072 | [4] 0.0923

O=C1CC(c2ccc(O)cc2)Oc2ccccc21 (stereo not given)
inactive: [1] 0.0599 | [2] -0.000865 | [3] 0.091 | [4] 0.0844

Cc1cc(=O)c2c(O)c3c(cc2o1)OC(C)(C)CC3
inactive: [1] -0.0169 | [2] 0.014 | [3] 0.0268 | [4] 0.147

Brc1c(NC2=NCCN2)ccc2nccnc12
inactive: [5] 0.141 | [6] 0.057 | [7] 0.149 | [8] -0.0709

CN(C)CCOC(=O)COc1ccc(Cl)cc1
inactive: [1] 0.0859 | [2] 0.0772 | [5] 0.194 | [6] 0.101 | [3] 0.0874 | [4] 0.0722 | [7] 0.119 | [8] 0.0469

C[C@H]1C[C@@H]2[C@H]([C@@H](O)C[C@@]3(C)[C@H]2CC[C@]3(O)C(=O)COC(=O)CCC(=O)O)[C@@]2(C)C=CC(=O)C=C12
inactive: [1] 0.203 | [2] 0.147 | [3] 0.205 | [4] -0.0324

Nc1cc(-c2ccncc2)c[nH]c1=O
inactive: [1] 0.126 | [2] 0.165 | [3] 0.172 | [4] 0.151

Nc1c(Br)cc(Br)cc1CNC1CCC(O)CC1 (stereo not given)
inactive: [1] 0.0989 | [2] 0.134 | [3] 0.12 | [4] 0.146

CC(=O)OC1CCC2(O)CC1(C)CCC1C2CC1(C)C (stereo not given)
inactive: [1] 0.146 | [2] -0.0214 | [3] 0.0446 | [4] 0.0774

CN(CCOc1ccc(CC2SC(=O)NC2=O)cc1)c1ccccn1 (stereo not given)
inactive: 0.103 µM, library screen: screen3, EWS-FLI1 expression: high (no doxycycline) 0.07 | 0.103 µM, library screen: screen3, EWS-FLI1 expression: low (doxycycline-induced shRNA knockdown) 0.0896 | [1] 0.0497 | [2] 0.0402 | 0.308 µM, library screen: screen3, EWS-FLI1 expression: high (no doxycycline) 0.0792 | 0.308 µM, library screen: screen3, EWS-FLI1 expression: low (doxycycline-induced shRNA knockdown) 0.0391 | 0.926 µM, library screen: screen3, EWS-FLI1 expression: high (no doxycycline) 0.124 | 0.926 µM, library screen: screen3, EWS-FLI1 expression: low (doxycycline-induced shRNA knockdown) 0.0651 | [3] 0.0946 | [4] 0.0673 | 2.8 µM, library screen: screen3, EWS-FLI1 expression: high (no doxycycline) 0.0659 | 2.8 µM, library screen: screen3, EWS-FLI1 expression: low (doxycycline-induced shRNA knockdown) 0.039 | 8.3 µM, library screen: screen3, EWS-FLI1 expression: high (no doxycycline) 0.0712 | 8.3 µM, library screen: screen3, EWS-FLI1 expression: low (doxycycline-induced shRNA knockdown) 0.0703 | 25 µM, library screen: screen3, EWS-FLI1 expression: high (no doxycycline) 0.0482 | 25 µM, library screen: screen3, EWS-FLI1 expression: low (doxycycline-induced shRNA knockdown) 0.0912

O=C(O)c1cc(=O)c2ccc(Cl)cc2[nH]1
inactive: [1] 0.0619 | [2] 0.111 | [5] 0.252 | [6] 0.173 | [3] 0.0566 | [4] 0.0557 | [7] 0.181 | [8] 0.177

NCc1ccc(S(N)(=O)=O)cc1
inactive: [1] 0.0629 | [2] 0.0602 | [3] 0.0995 | [4] 0.0341
